From the BET-seq Pho4 binding data (Le et al. 2018)
This is one part of the list. Values were computed here from the reads of four pooled replicates and scatter widely.

Molecular target: T1, Pho4 (S. cerevisiae) (UniProt P07270)
T1 sequence: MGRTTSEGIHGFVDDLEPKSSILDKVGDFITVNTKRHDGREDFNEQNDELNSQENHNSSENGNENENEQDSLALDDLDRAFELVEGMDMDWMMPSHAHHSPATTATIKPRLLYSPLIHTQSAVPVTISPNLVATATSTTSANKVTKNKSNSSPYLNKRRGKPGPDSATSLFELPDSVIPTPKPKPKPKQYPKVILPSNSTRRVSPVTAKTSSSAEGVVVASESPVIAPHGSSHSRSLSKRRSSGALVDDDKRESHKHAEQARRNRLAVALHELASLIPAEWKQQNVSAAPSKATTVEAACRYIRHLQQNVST
Experiment: relative binding free energy (BET-seq); higher = weaker binding
Details: reference: library average

Row | Sequence | relative binding free energy [kcal/mol]
1 | TATAACACGTGGTTTT | -0.04
2 | TAGTACACGTGGTTAT | 0.07
3 | ATAAACACGTGGATTG | 0.08
4 | TCGTGCACGTGTTAGG | 0.02
5 | ATGTGCACGTGGTGAG | -0.01
6 | CTAGGCACGTGGTTTA | -0.14
7 | GCCGGCACGTGTGGAT | 0.12
8 | AACGGCACGTGATGGG | 0.06
9 | TTCTTCACGTGGTAAT | 0.33
10 | TGGGCCACGTGTGTAA | -0.21
11 | GATCGCACGTGTTTGG | 0.03
12 | GCGGACACGTGGGCTG | -0.12
13 | GATGTCACGTGCATTG | 0.21
14 | TAATTCACGTGGGCGT | 0.16
15 | TAGGTCACGTGGAGAA | 0.2
16 | TCGGGCACGTGGTGGG | -0.18
17 | CTTGGCACGTGATTTG | -0.02
18 | ATCGGCACGTGGTGGG | -0.11
19 | CTTAACACGTGGTGTT | -0.15
20 | GAGTGCACGTGTGGCA | 0.19
21 | TTTAGCACGTGGTCGG | -0.26
22 | ATGTCCACGTGGAGGG | 0.06
23 | GTTCTCACGTGCGGTT | 0.3
24 | GTACTCACGTGATTTG | 0.33
25 | GTTAACACGTGTACTT | 0.08

Row | Sequence | relative binding free energy [kcal/mol]
26 | ACGTTCACGTGGTTTG | 0.03
27 | CGTGTCACGTGAGGCT | 0.13
28 | TTTAACACGTGTCGGC | 0.08
29 | TGCGTCACGTGAGTAG | 0.2
30 | ATTGGCACGTGTGGGC | -0.08
31 | AGATTCACGTGGATAG | 0.15
32 | TAGGTCACGTGTTTCA | 0.09
33 | TAGGGCACGTGCATAT | -0.22
34 | ATTAACACGTGGTGGT | -0.11
35 | TTTTACACGTGGTACA | 0.01
36 | GTGTTCACGTGGAGTA | 0.23
37 | GATTGCACGTGATGGA | 0.28
38 | TTACACACGTGTTGTT | -0.11
39 | TGTAGCACGTGGAGGA | -0.02
40 | AGGGTCACGTGTAAGA | 0.25
41 | TAAGTCACGTGATGTG | 0.19
42 | TTTTGCACGTGTTTGC | 0.05
43 | GATGCCACGTGGGGAT | -0.18
44 | GAGTGCACGTGGGGGG | -0.1
45 | CTTGTCACGTGTGGAT | 0.29
46 | TTATTCACGTGGGGCA | 0.06
47 | GGTTGCACGTGCGAGG | -0.06
48 | TTGTACACGTGTTGTT | 0.12
49 | AGAGGCACGTGAGTTG | 0.08
50 | ACTGGCACGTGTTTTT | -0.17

Row | Sequence | relative binding free energy [kcal/mol]
51 | TTGCGCACGTGTAGTT | -0.05
52 | TTTGACACGTGTGACA | 0.12
53 | TGAGTCACGTGGGTAG | -0.1
54 | TTATGCACGTGGAGTG | -0.14
55 | TTCCGCACGTGAAGGT | 0.25
56 | TATTACACGTGTGTTA | 0.14
57 | ATTCTCACGTGTAAGT | 0.13
58 | ATATTCACGTGTAAAG | 0.15
59 | GAGTTCACGTGGTGGC | 0.4
60 | ATTTACACGTGGTATG | 0.01
61 | GATTGCACGTGCTAGG | 0.01
62 | AGGTTCACGTGTAAAG | 0.31
63 | GGTCCCACGTGTTTTG | 0.05
64 | ATGACCACGTGTGGCG | 0.04
65 | GTTGGCACGTGAGTCT | 0.16
66 | TTTTACACGTGCTGAT | -0.06
67 | GTATACACGTGTTACG | 0.08
68 | TGAGGCACGTGGGACT | -0.15
69 | TAGTACACGTGTTATT | -0.05
70 | GTGGGCACGTGCTGGA | -0.09
71 | AGTTCCACGTGTGGGC | 0.12
72 | GAGTGCACGTGCTATG | 0.14
73 | ATAAGCACGTGGGTTC | -0.31
74 | GAGTTCACGTGCTTTT | 0.21
75 | TATAACACGTGTTGGA | -0.04

Row | Sequence | relative binding free energy [kcal/mol]
76 | GTAGTCACGTGGGATA | 0.01
77 | GAGCGCACGTGGTTGT | -0.09
78 | TGATACACGTGGTATA | 0
79 | AGGAGCACGTGTCGTG | -0.11
80 | AGTCTCACGTGGTGGC | 0.28
81 | ATATGCACGTGCGGTT | -0.01
82 | AGTGTCACGTGTATGA | 0.09
83 | CAGGGCACGTGTTTTG | 0
84 | GTTGTCACGTGGGCTC | -0.05
85 | TATAACACGTGGTAGA | -0.02
86 | GGGTTCACGTGGGCTC | 0.2
87 | TCGGCCACGTGTAGGG | -0.16
88 | GAAATCACGTGGGGGG | 0.05
89 | GAGTGCACGTGATCGT | 0.26
90 | GGTTGCACGTGTATAT | 0.09
91 | AATGTCACGTGTCGTT | 0.19
92 | TGTATCACGTGCCGGT | 0.03
93 | AGATTCACGTGATGGC | 0.32
94 | CGTAGCACGTGTGTGG | -0.13
95 | GGTACCACGTGGTATT | 0
96 | AGTTGCACGTGGATTC | 0.05
97 | GGGAACACGTGGGGGC | 0
98 | CGCTTCACGTGGGGTT | 0.14
99 | CAGGTCACGTGTGGTA | 0.16
100 | AGAGGCACGTGCTGCG | -0.19

Row | Sequence | relative binding free energy [kcal/mol]
101 | TTTGACACGTGCGATG | -0.16
102 | TAATACACGTGGTGTT | -0.12
103 | AGGTTCACGTGGAAGT | 0.35
104 | CGGTTCACGTGGATTA | 0.27
105 | TTTGGCACGTGGCTAA | -0.16
106 | GGGGTCACGTGGCAAT | 0.04
107 | TCGGACACGTGGTATA | 0.14
108 | GTCAGCACGTGGTTAG | -0.19
109 | GTTAGCACGTGTCGTC | 0.03
110 | GGGGACACGTGTTGTT | 0.09
111 | AATGCCACGTGGAGGT | -0.1
112 | GTGAACACGTGGCGTT | 0
113 | ATGCGCACGTGGGCGT | -0.22
114 | GTGGGCACGTGTTGTG | 0
115 | AAGTGCACGTGTGTAT | -0.06
116 | CGGTGCACGTGGGTTA | -0.19
117 | TGTGACACGTGGTGTT | -0.03
118 | CTAGACACGTGTATGG | 0.08
119 | CGTGGCACGTGACATT | 0.06
120 | TGTAACACGTGTTAGC | -0.06
121 | CGGAGCACGTGTGGGC | -0.01
122 | GTAGCCACGTGTTGTG | 0.03
123 | GTTTGCACGTGATTGC | 0.08
124 | TCGGGCACGTGCTTGG | -0.08
125 | ATTGGCACGTGAATAT | -0.05

Row | Sequence | relative binding free energy [kcal/mol]
126 | TCGCTCACGTGGTGTG | 0.11
127 | TGTAGCACGTGGGAAG | -0.2
128 | TTGGACACGTGCTTGA | 0.01
129 | GATGTCACGTGGAGAG | 0.17
130 | GATTACACGTGTTGGA | 0.15
131 | TTGAGCACGTGATTTA | 0
132 | TTCTTCACGTGGTGGT | 0.23
133 | CCTGGCACGTGTATGT | -0.05
134 | GGCAACACGTGGGTCT | 0.13
135 | GTGCTCACGTGATGAT | 0.43
136 | TGGTACACGTGTTAAG | 0.18
137 | AGGTGCACGTGTGAAA | 0.15
138 | ATGAGCACGTGTTTAT | -0.07
139 | AGAATCACGTGGGGTG | 0.05
140 | TGGGGCACGTGATATA | 0.16
141 | GGGGTCACGTGGCTTA | 0.14
142 | TTTGGCACGTGACTGC | 0
143 | TTAGCCACGTGCGTTG | -0.12
144 | TGGCGCACGTGTGGGT | -0.01
145 | CTCGGCACGTGGTTTA | -0.09
146 | TCGGGCACGTGAGGGG | 0.19
